# According to the supplement of paper PMC3334620:
# The full ranking holds about 33,000 sequences; the median of “E-score (-0.5 to 0.5)” is about -0.056, and the highest 2% start at about 0.38. The list shows a part of the results.
# Target: Stb4 (UniProt P50104)
# Experiment: PBM E-score (8-mer binding enrichment) (E-score (-0.5 to 0.5)); higher = stronger / more preferred TF binding; most listed sequences are background and not binding sites
# Conditions: protein concentration: 200 nM; construct: GST-DNA-binding domain
# Procedure, shortened: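 Using PURExpress in vitro transcription/translation, GST-tagged yeast transcription factors were made in full-length or DNA-binding-domain form. These were applied at about 100-200 nM to double-stranded universal all-10-mer Agilent arrays, and bound protein was detected with fluorescent anti-GST. Scans were normalised with masliner before the Universal PBM Analysis Suite assigned E-scores to ungapped eight-base words pooled with their reverse complements.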
row,Sequence,PBM E-score
1,GAATTTGA,0.141
2,TAAGACTA,-0.196
3,GAGAATCC,0.0305
4,CAGGGTCC,-0.0926
5,CAGATTAC,-0.027
6,ACGATGTA,-0.222
7,CGATGATA,0.122
8,CATAGCTC,-0.073
9,CGAGCGTA,0.0494
10,ACAGTGGA,-0.005
11,GTACAGTA,-0.134
12,AACAGTGA,-0.0385
13,CAGAAAGG,-0.148
14,TTACGCAA,-0.0396
15,AGTCACAG,-0.267
16,CCCCCGCA,-0.158
17,AACGCATA,0.03
18,CTGTGTTC,-0.0183
19,TCCGAAGA,0.458
20,CAATACCC,0.126
21,ACCGACGG,0.359
22,CGCAATAG,-0.0449
23,CGATGGCA,0.0181
24,CGGAGAAC,0.162
25,CAGGGAAG,-0.169

row,Sequence,PBM E-score
1,TACGCTCA,-0.372
2,GTGATAAA,-0.028
3,GCGTCCAA,-0.252
4,CTTCAATA,-0.0834
5,TGGCGAAA,-0.11
6,TAGCACAA,-0.27
7,AGCTAATC,-0.0739
8,TAGCCAGA,-0.109
9,GTCCACGA,-0.137
10,AGAGTCTG,-0.175
11,ACGCTCGC,-0.227
12,GGAGCTAC,0.00778
13,GAGATCTA,-0.103
14,CATATGAA,-0.131
15,GTACTCGA,-0.238
16,TGTTACAA,-0.0172
17,AATTGTAA,-0.126
18,ACAGGGAA,-0.0341
19,AGCCCAGC,0.174
20,TAGACGAA,-0.35
21,AGAGTGCA,-0.117
22,GAGTGTCA,0.0457
23,AAGAACCC,-0.0513
24,ACCATAAA,-0.147
25,CCCAATAC,-0.133

row,Sequence,PBM E-score
1,GGAGTGTA,0.0839
2,ATTTACCC,0.194
3,GCCCACCA,-0.176
4,AACTTGTA,-0.0932
5,CCCAAGCG,-0.122
6,CTTTGGTA,-0.0284
7,ATTAACAC,0.00046
8,AGGAACGG,0.149
9,CTTAAAGA,0.0139
10,CATAACAG,-0.218
11,CAAGAGTG,-0.228
12,CGTCAACA,-0.123
13,AGGTGATA,-0.225
14,AGCTTAGA,-0.133
15,TACGAAGA,-0.0932
16,AGCTTACT,-0.123
17,ACATATTG,-0.216
18,AAGGCAGC,-0.192
19,CCAGAAAG,-0.0194
20,CACCCGGG,0.323
21,CCTGTCCG,0.0761
22,CGGGAGCC,0.258
23,GGAAGGCC,0.121
24,GTGCAAAC,-0.0575
25,CATATGCA,-0.125

row,Sequence,PBM E-score
1,CCTGCTTC,-0.0591
2,GTGTAGCA,-0.0981
3,ACCCAAAG,-0.161
4,ATTCGGAG,0.324
5,CCTTGTAG,-0.0871
6,GGGCCCGA,0.278
7,CATAATGA,-0.184
8,ATTGTGCA,-0.126
9,CTCTCAAG,-0.216
10,GAAGTCAC,0.0134
11,AGCTCTTC,-0.018
12,ATCGACTG,0.0856
13,CTCCCCCC,-0.156
14,TATTTACA,-0.17
15,CAGCAACA,-0.112
16,AGGCACCC,-0.141
17,CCGGGCAC,0.283
18,ATCAATCG,0.0502
19,CGATGGTC,-0.158
20,AACACTCC,0.0837
21,AAAGCTCC,0.0622
22,CTCCGACC,0.315
23,AACGGGTG,0.209
24,ACCCGCTG,0.119
25,CCCCGGCG,0.126

row,Sequence,PBM E-score
1,AGCTAAGC,-0.279
2,CAACTCCG,0.237
3,ATCCGCAA,0.245
4,AACGTAGA,0.0138
5,CTCTTGCC,0.084
6,CTTTTCGC,0.0638
7,TCAAAACA,-0.0957
8,TCCGACAA,0.355
9,CCTGCCAC,-0.186
10,TATAAGAA,-0.0781
11,CGGGTGAG,0.332
12,ATGCTCTA,-0.18
13,AATTTGTC,-0.117
14,CTTATAAG,0.174
15,GAATGAAA,0.073
16,ACTAGATG,-0.242
17,CGGTGTCA,0.0521
18,ATGGTCTG,-0.151
19,CATTCGAA,-0.0572
20,ATTCGTTG,0.0153
21,GATGTAAC,-0.0279
22,GATGGGAC,-0.0311
23,AAACGGGC,-0.0189
24,TCACTCAA,-0.253
25,ATATTTCG,0.284

row,Sequence,PBM E-score
1,AAGTATGC,-0.196
2,GCTTACCC,0.177
3,GCTTAATA,-0.103
4,ATGCCGTC,0.0989
5,ACGGGTGA,0.179
6,CGTCTTCA,-0.135
7,GCCCACGC,-0.168
8,AAATGTAC,-0.0404
9,ACGAGTCA,-0.294
10,CATAATTC,-0.0122
11,TAAACTAA,-0.0455
12,CGAAGAAA,0.111
13,AGTGATCC,0.0745
14,AAATTCCG,0.387
15,TGCCGGAA,0.419
16,GATCCACA,0.0527
17,GCTGTTTA,-0.0043
18,TCACACCA,-0.104
19,GACGACTA,-0.2
20,ACACTATC,0.0635
21,AGCCGGTC,0.0773
22,CCTCTCCA,-0.309
23,CAGAATGC,0.0966
24,CGTAGTGC,-0.204
25,CGAGAACA,0.03

row,Sequence,PBM E-score
1,GATATGCC,0.0428
2,CCGAGCAA,0.406
3,CAGATAGA,-0.184
4,CCGCACCA,0.125
5,CCGTGGTC,0.0825
6,GGAAGCCA,0.175
7,CCGGGAGA,0.291
8,GTCTTAAC,-0.282
9,CAATTTAC,-0.00625
10,CCCCAGTA,-0.128
11,CCGAAACG,0.373
12,CCAAGAGC,-0.131
13,ATAGGCTC,0.0035
14,CTTCTTGC,-0.0322
15,ACGCCCCA,0.0489
16,CGCCAGCC,0.132
17,ACACTGGC,-0.049
18,GGGAAGCA,0.0636
19,CGGCGGAC,0.272
20,AGTATAGA,0.0645
21,AATGTACG,-0.0886
22,CCTTCTAC,-0.133
